Results reported in the supplement of paper PMC4967469.
By IC50 is meant the dose at which the fit gives 50% viability; fits outside the tested doses are given as limits. AUC is the area under the same curve over the 256-fold range up to the top dose, as a fraction; the more sensitive the line, the further below 1. For part of these data: An inferred top dose is not printed in the source and was worked back from the curve model. For part of these data: Where an entry number is given, a second screen of the drug exists; the two often differ.

Experiments:
Assay in all cases: Viability of human cancer cell lines after 72 h of drug (GDSC screen)
AR-42 = compound: CC(C)[C@H](C(=O)Nc1ccc(C(=O)NO)cc1)c1ccccc1 [AR-42]; details: top dose 5.12 µM; top dose inferred
Experimental: (§1)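 Human cancer cell lines in 384-well plates, medium with 10% serum, drug for 72 h over a 256-fold dose range (nine 2-fold or five 4-fold steps up to the top dose). Adherent lines were fixed and stained with the nucleic acid dye Syto60, suspension lines read with resazurin; signal relative to control wells, capped at 0 and 100%. One two-parameter sigmoid per drug and line, fitted in a mixed model over all curves with the slope shared within a line.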

GDC0941 = compound: CS(=O)(=O)N1CCN(Cc2cc3nc(-c4cccc5[nH]ncc45)nc(N4CCOCC4)c3s2)CC1 [GDC0941]; details: top dose 4 µM; screen: GDSC drug entry 1527; top dose inferred
Experimental: as §1

CEP-701 = compound: C[C@]12O[C@H](C[C@]1(O)CO)n1c3ccccc3c3c4c(c5c6ccccc6n2c5c31)CNC4=O [CEP-701]; details: top dose 2 µM; top dose inferred
Experimental: as §1

Pazopanib = compound: Cc1ccc(Nc2nccc(N(C)c3ccc4c(C)n(C)nc4c3)n2)cc1S(N)(=O)=O [Pazopanib]; details: top dose 8 µM
Experimental: as §1

SB 216763 = compound: Cn1cc(C2=C(c3ccc(Cl)cc3Cl)C(=O)NC2=O)c2ccccc21 [SB 216763]; details: top dose 10 µM; top dose inferred
Experimental: as §1

Row | Cell Line | AUC (AR-42) | IC50 (AR-42) [nM] | AUC (GDC0941) | IC50 (GDC0941) [nM] | AUC (CEP-701) | IC50 (CEP-701) [nM] | AUC (Pazopanib) | IC50 (Pazopanib) [nM] | AUC (SB 216763) | IC50 (SB 216763) [nM]
1 | HSC-4 (head and neck, adherent) | 0.786 | 3040 | 0.627 | 631 | 0.599 | 256 | 0.977 | > 8000 | 0.947 | > 10000
2 | HT-3 (cervix, adherent) | 0.565 | 482 | 0.85 | 3100 | 0.695 | 444 | 0.987 | > 8000 | 0.983 | > 10000
3 | HT-115 (large intestine, adherent) | 0.563 | 467 | 0.886 | 3760 | 0.85 | 1320 | 0.969 | > 8000 | 0.962 | > 10000
4 | HT-1080 (fibrosarcoma, adherent) | 0.764 | 1680 | 0.82 | 1990 | 0.264 | 28.9 | 0.917 | > 8000 | 0.987 | > 10000
5 | HT-1197 (bladder, adherent) | 0.593 | 603 | 0.711 | 1110 | 0.95 | > 2000 | 0.878 | > 8000 | 0.947 | > 10000
6 | HT-1376 (bladder, adherent) | 0.93 | > 5120 | 0.812 | 2640 | 0.89 | > 2000 | 0.919 | > 8000 | 0.984 | > 10000
7 | Hs633T (fibrosarcoma, adherent) | 0.473 | 274 | 0.8 | 1540 | 0.346 | 51.1 | 0.98 | > 8000 | 0.977 | > 10000
8 | Hs683 (glioma, adherent) | 0.756 | 1760 | 0.909 | > 4000 | 0.707 | 484 | 0.935 | > 8000 | 0.913 | > 10000
9 | HuCCT1 (biliary tract, adherent) | 0.655 | 907 | 0.734 | 1270 | 0.717 | 556 | 0.947 | > 8000 | 0.981 | > 10000
10 | HuH-7 (liver, adherent) | 0.523 | 369 | 0.895 | > 4000 | 0.849 | 1490 | 0.801 | 3890 | 0.978 | > 10000
11 | HuO9 (osteosarcoma, adherent) | 0.757 | 1950 | 0.55 | 348 | 0.629 | 296 | 0.976 | > 8000 | 0.979 | > 10000
12 | HuO-3N1 (osteosarcoma, adherent) | 0.846 | > 5120 | 0.815 | 3140 | 0.681 | 474 | 0.884 | > 8000 | 0.982 | > 10000
13 | IHH-4 (thyroid, semi-adherent) | 0.518 | 355 | 0.86 | 2340 | 0.536 | 153 | 0.945 | > 8000 | 0.99 | > 10000
14 | IPC-298 (melanoma, adherent) | 0.422 | 196 | 0.849 | 2920 | 0.224 | 19.9 | 0.934 | > 8000 | 0.988 | > 10000
15 | JEG-3 (urogenital system, adherent) | 0.991 | > 5120 | 0.915 | > 4000 | 0.775 | 712 | 0.914 | > 8000 | 0.985 | > 10000
16 | JHH-1 (liver, adherent) | 0.294 | 79.6 | 0.569 | 393 | 0.79 | 973 | 0.669 | 1540 | 0.985 | > 10000
17 | JHH-2 (liver, adherent) | 0.592 | 583 | 0.822 | 2580 | 0.756 | 732 | 0.986 | > 8000 | 0.984 | > 10000
18 | JHH-4 (liver, adherent) | 0.364 | 135 | 0.827 | 2440 | 0.715 | 506 | 0.546 | 667 | 0.847 | 7300
19 | JHH-6 (liver, adherent) | 0.745 | 1630 | 0.692 | 872 | 0.797 | 961 | 0.982 | > 8000 | 0.987 | > 10000
20 | JIMT-1 (breast, adherent) | 0.791 | 2490 | 0.636 | 615 | 0.823 | 1300 | 0.869 | > 8000 | 0.972 | > 10000
21 | JVM-3 (lymphoid neoplasm, suspension) | 0.469 | 264 | 0.785 | 1740 | 0.412 | 71.6 | 0.985 | > 8000 | 0.958 | > 10000
22 | K2 (melanoma, adherent) | 0.726 | 1720 | 0.85 | > 4000 | 0.775 | 1040 | 0.943 | > 8000 | 0.982 | > 10000
23 | KE-37 (lymphoblastic leukaemia, suspension) | 0.302 | 104 | 0.965 | > 4000 | 0.185 | 19.8 | 0.985 | > 8000 | 0.992 | > 10000
24 | KINGS-1 (glioma, adherent) | 0.499 | 317 | 0.829 | 3890 | 0.644 | 364 | 0.944 | > 8000 | 0.944 | > 10000
25 | KMH-2 (thyroid, adherent) | 0.96 | > 5120 | 0.86 | 2770 | 0.731 | 519 | 0.896 | 7990 | 0.963 | > 10000
26 | KMRC-1 (kidney, adherent) | 0.62 | 702 | 0.874 | > 4000 | 0.889 | > 2000 | 0.896 | > 8000 | 0.924 | > 10000

Row | Cell Line | AUC (AR-42) | IC50 (AR-42) [nM] | AUC (GDC0941) | IC50 (GDC0941) [nM] | AUC (CEP-701) | IC50 (CEP-701) [nM] | AUC (Pazopanib) | IC50 (Pazopanib) [nM] | AUC (SB 216763) | IC50 (SB 216763) [nM]
27 | KMRC-20 (kidney, adherent) | 0.863 | 4550 | 0.885 | > 4000 | 0.682 | 408 | 0.942 | > 8000 | 0.985 | > 10000
28 | KON (head and neck, adherent) | 0.937 | > 5120 | 0.648 | 637 | 0.431 | 81.2 | 0.956 | > 8000 | 0.987 | > 10000
29 | KOPN-8 (B-cell leukaemia, suspension) | 0.206 | 51.7 | 0.923 | > 4000 | 0.433 | 84.5 | 0.988 | > 8000 | 0.99 | > 10000
30 | KP-2 (pancreas, adherent) | 0.585 | 558 | 0.842 | 3160 | 0.78 | 893 | 0.981 | > 8000 | 0.964 | > 10000
31 | KP-3 (pancreas, adherent) | 0.765 | 2230 | 0.89 | > 4000 | 0.8 | 1180 | 0.943 | > 8000 | 0.983 | > 10000
32 | KU-19-19 (bladder, adherent) | 0.55 | 437 | 0.94 | > 4000 | 0.716 | 510 | 0.97 | > 8000 | 0.978 | > 10000
33 | KYM-1 (rhabdomyosarcoma, adherent) | 0.551 | 431 | 0.896 | 3640 | 0.808 | 860 | 0.978 | > 8000 | 0.991 | > 10000
34 | KYSE-50 (oesophagus, adherent) | 0.77 | 1780 | 0.932 | > 4000 | 0.8 | 869 | 0.868 | 6270 | 0.99 | > 10000
35 | KYSE-70 (oesophagus, adherent) | 0.683 | 1100 | 0.851 | 3520 | 0.904 | > 2000 | 0.888 | > 8000 | 0.987 | > 10000
36 | KYSE-150 (oesophagus, adherent) | 0.852 | 3700 | 0.952 | > 4000 | 0.76 | 679 | 0.976 | > 8000 | 0.96 | > 10000
37 | KYSE-220 (oesophagus, adherent) | 0.679 | 1040 | 0.904 | > 4000 | 0.721 | 551 | 0.985 | > 8000 | 0.986 | > 10000
38 | KYSE-510 (oesophagus, adherent) | 0.733 | 1280 | 0.884 | 3080 | 0.881 | 1490 | 0.963 | > 8000 | 0.992 | > 10000
39 | KYSE-520 (oesophagus, adherent) | 0.741 | 2030 | 0.858 | > 4000 | 0.837 | > 2000 | 0.946 | > 8000 | 0.971 | > 10000
40 | LCLC-97TM1 (large cell lung carcinoma, adherent) | 0.546 | 432 | 0.815 | 2460 | 0.622 | 280 | 0.881 | > 8000 | 0.93 | > 10000
41 | LCLC-103H (large cell lung carcinoma, adherent) | 0.606 | 605 | 0.972 | > 4000 | 0.822 | 1020 | 0.679 | 1490 | 0.969 | > 10000
42 | LK-2 (lung squamous cell carcinoma, adherent) | 0.53 | 384 | 0.925 | > 4000 | 0.555 | 175 | 0.758 |  | 0.989 | > 10000
43 | LN-229 (glioma, adherent) | 0.673 | 970 | 0.857 | 3230 | 0.791 | 894 | 0.964 | > 8000 | 0.957 | > 10000
44 | LN-405 (glioma, adherent) | 0.678 | 1150 | 0.796 | 2440 | 0.792 | 1170 | 0.852 | > 8000 | 0.966 | > 10000
45 | LOUCY (T-cell lymphoblastic leukaemia, suspension) | 0.409 | 189 | 0.817 | 1730 | 0.657 | 311 | 0.99 | > 8000 | 0.991 | > 10000
46 | LS-180 (large intestine, adherent) | 0.658 | 939 | 0.613 | 536 | 0.813 | 1270 | 0.985 | > 8000 | 0.966 | > 10000
47 | LU-135 (small cell lung carcinoma, suspension) | 0.511 | 341 | 0.97 | > 4000 | 0.555 | 172 | 0.969 | > 8000 | 0.986 | > 10000
48 | LoVo (large intestine, adherent) | 0.745 | 1620 | 0.685 | 827 | 0.334 | 43 | 0.87 | 7580 | 0.889 | > 10000
49 | M14 (melanoma, adherent) | 0.694 | 1160 | 0.94 | > 4000 | 0.382 | 58.1 | 0.866 | 7790 | 0.986 | > 10000
50 | M059J (glioma, adherent) | 0.624 | 725 | 0.905 | > 4000 | 0.695 | 465 | 0.766 | 3200 | 0.95 | > 10000
51 | MC-IXC (neuroblastoma, adherent) | 0.477 | 281 | 0.984 | > 4000 | 0.21 | 24.1 | 0.473 | 430 | 0.976 | > 10000
52 | MDA-MB-175-VII (breast, adherent) | 0.675 | 1040 | 0.835 | 3010 | 0.809 | 1180 | 0.981 | > 8000 | 0.988 | > 10000
